In PubChem BioAssay AID686979 (National Center for Advancing Translational Sciences (NCATS), 2013):
Out of some 420,000 compounds screened, about 50,000 (12%) were called active. The inconclusive results got no clear call from the source; some entries with a clear call stand among them for comparison. The call rests on the fitted dose curve; in most records, active means well fitted inhibition curve with a large enough effect; inconclusive means small, poorly fitted or top-dose-only effect; inactive means flat fitted curve, though single readings scatter. No potency is given beside an inconclusive call; the fits are too rough.

assay: qHTS for Inhibitors of human tyrosyl-DNA phosphodiesterase 1 (TDP1): qHTS in cells in presence of CPT; conditions: chicken DT40 Tdp1-/-;hTDP1 cells + 20 nM CPT, ATP luminescence, 48 h; activity change, negative = growth inhibition: at 46.2 µM (top of the series) unless noted; further: nearly all actives have a fitted effect of over 55% in size
Method in brief: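 Chicken DT40 Tdp1-/- cells complemented with human TDP1, 400 cells/well, exposed to compounds plus 20 nM camptothecin for at least 48 h at 37 C; viability read as ATP content by CellTiter-Glo luminescence.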
On the % scale 0 is the no-effect control and ±100 the full control effect; potency means the concentration at half of the fitted maximal effect; tags describe the fitted curve by direction and shape.

Row | SMILES | Potency | activity change, negative = growth inhibition
1 | COc1ccccc1OC(C)C(=O)Nc1ccc2c(c1)n(C)c(=O)n2C (stereo unspecified) | inactive | 
2 | CC(C)C(=O)Nc1cccc(C(=O)NCc2ccc3c(c2)OCO3)c1 | inactive | 
3 | COC(=O)c1cn(NC(=O)C2CCCO2)c(=O)c2ccccc12 (stereo unspecified) |  | inconclusive: -33% [inhibitor]
4 | CC(C)(C)CC(=O)NC(=S)N1CCCCCC1 | inactive | 
5 | COCCNc1nc(Oc2ccccc2)c2sccc2n1 | active: 29.1 µM | 
6 | COc1ccc(C(=O)Nc2cc(C(C)C)c(O)c(S(=O)(=O)c3ccc(OC)cc3)c2C)cc1 | inactive | 
7 | COc1ccc(Cn2nnnc2C(CC(C)C)N2CCN(c3ccccc3)CC2)cc1 (stereo unspecified) | active: 18.4 µM | 
8 | CCOC(=O)CC1(C)Sc2ccccc2N1S(=O)(=O)c1ccc(C)cc1 (stereo unspecified) | inconclusive [inhibitor, single point] | 
9 | Cc1ccccc1N1CCN(S(=O)(=O)c2nnc(NC(=O)c3ccccc3)s2)CC1 | inconclusive [inhibitor, single point] | 
10 | O=[N+]([O-])c1ccc(NCc2ccncc2)cc1 |  | inconclusive: -30.1% [inhibitor]
11 | CC1CCCCN1C(=O)CNCc1ccc(F)cc1 (stereo unspecified) | inactive | 
12 | c1ccc(Cc2nnc(SCc3nc(-c4cccs4)no3)n2-c2ccccc2)cc1 | inconclusive [inhibitor, single point] | 
13 | COC(=O)c1ccc2c(=O)n(CCN3CCOCC3)c(SCC(=O)Nc3ccc(OC)cc3OC)nc2c1 | inactive | 
14 | NS(=O)(=O)c1ccc(NC(=S)NC(=O)c2ccc(Br)o2)cc1 | inconclusive [inhibitor, single point] | 
15 | O=C(Nc1ccc2nc(N3CCOCC3)sc2c1)c1ccc(F)cc1 | inconclusive [inhibitor, single point] | 
16 | O=c1c(-c2ccc(Br)cc2)[n+]([O-])c2ccccc2n1OCc1ccccn1 | inconclusive [inhibitor, single point] | 
17 | CCN(CC)S(=O)(=O)c1ccc(-c2nnc(SCC(N)=O)n2CC)cc1 | inactive | 
18 | COc1ccc2oc(C(=O)NC(C)(C)C)c(C)c2c1 |  | inconclusive: -19.9% [inhibitor]
19 | O=c1c2oc3ccccc3c2n(Cc2cccc(F)c2)c(=O)n1Cc1ccco1 | inconclusive [inhibitor, single point] | 
20 | Cc1c(Cl)c(C(F)(F)F)nn1CC(=O)NCc1ccccc1 | inconclusive [inhibitor, full curve] | 
21 | CC1CCCN(S(=O)(=O)c2cc(C(=O)NCCc3ccc(S(N)(=O)=O)cc3)ccc2Cl)C1 (stereo unspecified) | inconclusive [inhibitor, single point] | 
